Legend:
[1] = test system: unilaterally 6-OHDA-lesioned LID rats; conditions: literature (Flores et al., 2014; Paquette et al., 2010); cited from earlier work
[2] = test system: unilaterally 6-OHDA-lesioned LID rats; experiment: L-DOPA-induced AIMs in the preclinical rat LID model (10 hr ketamine 'infusion' paradigm or acute injection); conditions: cohort #1

| SMILES | ipsiversive turning behavior (worsening of the Parkinsonism) [1] | time before the baseline AIMs score was reached again ([2]; 10 mg/kg ketamine-'infusion') | time before the baseline AIMs score level was reached again ([2]; 15 mg/kg ketamine-'infusion') |
| --- | --- | --- | --- |
| C[C@]12N[C@H](Cc3ccccc31)c1ccccc12 [MK-801] | induce the ipsiversive turning behavior |  |  |
| CNC1(c2ccccc2Cl)CCCCC1=O (racemic) [ketamine, (RS)-2-(2-Chlorophenyl)-2-(methylamino)cyclohexanone] |  | 10 days | 31 days |
